Results: the supplement of paper PMC4967469
By IC50 is meant the dose at which the fit gives 50% viability; a fit beyond the top or the lowest dose is shown as a bound at that dose. The AUC spans the tested range (256-fold, ending at the top dose) of the same fit; the more sensitive the line, the further below 1. Any top dose called inferred comes from the curve model; the source does not state it.

Tests used:
Experiment in all cases: Viability of human cancer cell lines after 72 h of drug (GDSC screen)
CH5424802 = compound: CCc1cc2c(cc1N1CCC(N3CCOCC3)CC1)C(C)(C)c1[nH]c3cc(C#N)ccc3c1C2=O [CH5424802]; conditions: top dose 5.12 µM; top dose inferred
Procedure: (§1)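 Human cancer cell lines in 384-well plates, medium with 10% serum, drug for 72 h over a 256-fold dose range (nine 2-fold or five 4-fold steps up to the top dose). Adherent lines were fixed and stained with the nucleic acid dye Syto60, suspension lines read with resazurin; signal relative to control wells, capped at 0 and 100%. One two-parameter sigmoid per drug and line, fitted in a mixed model over all curves with the slope shared within a line.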

CAY10603 = compound: CC(C)(C)OC(=O)Nc1ccc(-c2cc(C(=O)NCCCCCCC(=O)NO)no2)cc1 [CAY10603]; conditions: top dose 20 µM; top dose inferred
Procedure: as §1

ACHP (KIN001-260) = compound: N#Cc1c(C2CCNCC2)cc(-c2c(O)cccc2OCC2CC2)nc1N [ACHP (KIN001-260)]; conditions: top dose 20 µM; top dose inferred
Procedure: as §1

Cell Line	AUC (CH5424802)	IC50 (CH5424802) [µM]	AUC (CAY10603)	IC50 (CAY10603) [µM]	AUC (ACHP (KIN001-260))	IC50 (ACHP (KIN001-260)) [µM]
MS-1 (small cell lung carcinoma, suspension)	0.969	> 5.12	0.293	0.351	0.963	> 20
MY-M12 (leukaemia, suspension)	0.664	0.976	0.211	0.154	0.931	> 20
MZ7-mel (melanoma, adherent)	0.981	> 5.12	0.328	0.406	0.878	> 20
Mewo (melanoma, adherent)	0.977	> 5.12	0.659	3.78	0.984	> 20
NB12 (neuroblastoma, adherent)	0.864	> 5.12	0.238	0.164	0.979	> 20
NB17 (neuroblastoma, adherent)	0.708	1.36	0.637	3.17	0.972	> 20
NCI-H23 (lung adenocarcinoma, adherent)	0.959	> 5.12	0.601	2.36	0.988	> 20
NCI-H64 (small cell lung carcinoma, suspension)	0.996	> 5.12	0.413	0.768	0.901	14
NCI-H69 (small cell lung carcinoma, suspension)	0.984	> 5.12	0.622	2.82	0.983	> 20
NCI-H187 (small cell lung carcinoma, suspension)	0.981	> 5.12	0.442	0.855	0.951	> 20
NCI-H209 (small cell lung carcinoma, suspension)	0.919	> 5.12	0.973	> 20	0.951	> 20
NCI-H211 (small cell lung carcinoma, adherent)	0.97	> 5.12	0.302	0.354	0.781	8.04
NCI-H322M (lung adenocarcinoma, suspension)	0.978	> 5.12	0.679	4.48	0.965	> 20
NCI-H358 (lung adenocarcinoma, adherent)	0.943	> 5.12	0.433	0.802	0.945	> 20
NCI-H510A (small cell lung carcinoma, semi-adherent)	0.99	> 5.12	0.435	0.842	0.97	> 20
NCI-H520 (lung squamous cell carcinoma, adherent)	0.977	> 5.12	0.413	0.714	0.875	> 20
NCI-H522 (lung adenocarcinoma, adherent)	0.978	> 5.12	0.45	0.89	0.968	> 20
NCI-H526 (small cell lung carcinoma, suspension)	0.939	> 5.12	0.599	2.31	0.919	> 20
NCI-H596 (lung adenocarcinoma, adherent)	0.959	> 5.12	0.563	1.96	0.98	> 20
NCI-H647 (non-small cell lung carcinoma, adherent)	0.938	> 5.12	0.58	2.09	0.922	> 20
NCI-H661 (large cell lung carcinoma, adherent)	0.969	> 5.12	0.456	0.926	0.982	> 20
NCI-H727 (lung carcinoid, adherent)	0.969	> 5.12	0.882	> 20	0.964	> 20
NCI-H748 (small cell lung carcinoma, suspension)	0.974	> 5.12	0.356	0.444	0.929	> 20

Cell Line	AUC (CH5424802)	IC50 (CH5424802) [µM]	AUC (CAY10603)	IC50 (CAY10603) [µM]	AUC (ACHP (KIN001-260))	IC50 (ACHP (KIN001-260)) [µM]
NCI-H838 (lung adenocarcinoma, adherent)	0.983	> 5.12	0.567	1.92	0.971	> 20
NCI-H1048 (small cell lung carcinoma, adherent)	0.987	> 5.12	0.628	2.7	0.924	> 20
NCI-H1092 (small cell lung carcinoma, suspension)	0.98	> 5.12	0.521	1.43	0.975	> 20
NCI-H1299 (large cell lung carcinoma, adherent)	0.971	> 5.12	0.802	12.5	0.957	> 20
NCI-H1417 (small cell lung carcinoma, suspension)	0.911	> 5.12	0.458	0.939	0.958	> 20
NCI-H1435 (lung adenocarcinoma, semi-adherent)	0.993	> 5.12	0.71	4.52	0.985	> 20
NCI-H1573 (lung adenocarcinoma, adherent)	0.991	> 5.12	0.694	4.29	0.986	> 20
NCI-H1581 (large cell lung carcinoma, semi-adherent)	0.989	> 5.12	0.495	1.22	0.983	> 20
NCI-H1666 (lung adenocarcinoma, semi-adherent)	0.982	> 5.12	0.686	4.37	0.982	> 20
NCI-H1693 (lung adenocarcinoma, adherent)	0.963	> 5.12	0.582	2.39	0.974	> 20
NCI-H1703 (lung adenocarcinoma, adherent)	0.979	> 5.12	0.86	> 20	0.98	> 20
NCI-H1734 (lung adenocarcinoma, adherent)	0.96	> 5.12	0.547	1.7	0.98	> 20
NCI-H1793 (lung adenocarcinoma, adherent)	0.982	> 5.12	0.84	> 20	0.978	> 20
NCI-H1836 (small cell lung carcinoma, suspension)	0.968	> 5.12	0.499	1.24	0.982	> 20
NCI-H1838 (lung adenocarcinoma, adherent)	0.939	> 5.12	0.892	> 20	0.983	> 20
NCI-H1869 (lung squamous cell carcinoma, adherent)	0.955	> 5.12	0.769	8.53	0.931	> 20
NCI-H2009 (lung adenocarcinoma, adherent)	0.985	> 5.12	0.858	18	0.978	> 20
NCI-H2023 (lung adenocarcinoma, adherent)	0.979	> 5.12	0.809	13.7	0.974	> 20
NCI-H2029 (small cell lung carcinoma, adherent)	0.99	> 5.12	0.737	5.46	0.987	> 20
NCI-H2030 (lung adenocarcinoma, adherent)	0.929	> 5.12	0.607	2.57	0.909	> 20
NCI-H2052 (mesothelioma, adherent)	0.952	> 5.12	0.847	> 20	0.982	> 20
NCI-H2081 (small cell lung carcinoma, suspension)	0.985	> 5.12	0.723	5.59	0.989	> 20
NCI-H2085 (lung adenocarcinoma, adherent)	0.929	> 5.12	0.678	4.1	0.918	> 20

Cell Line	AUC (CH5424802)	IC50 (CH5424802) [µM]	AUC (CAY10603)	IC50 (CAY10603) [µM]	AUC (ACHP (KIN001-260))	IC50 (ACHP (KIN001-260)) [µM]
NCI-H2135 (non-small cell lung carcinoma, adherent)	0.985	> 5.12	0.436	0.843	0.924	> 20
NCI-H2170 (lung squamous cell carcinoma, adherent)	0.977	> 5.12	0.617	2.67	0.984	> 20
NCI-H2172 (non-small cell lung carcinoma, adherent)	0.978	> 5.12	0.784	11.9	0.941	> 20
NCI-H2196 (small cell lung carcinoma, adherent)	0.977	> 5.12	0.456	0.944	0.951	> 20
NCI-H2227 (small cell lung carcinoma, semi-adherent)	0.965	> 5.12	0.305	0.327	0.911	> 20
NCI-H2342 (lung adenocarcinoma, adherent)	0.974	> 5.12	0.92	> 20	0.971	> 20
NCI-H2405 (lung adenocarcinoma, adherent)	0.972	> 5.12	0.836	15.3	0.97	> 20
NCI-H2444 (non-small cell lung carcinoma, adherent)	0.988	> 5.12	0.705	5.15	0.988	> 20
NCI-H2452 (mesothelioma, adherent)	0.984	> 5.12	0.921	> 20	0.984	> 20
NCI-SNU-1 (stomach, suspension)	0.986	> 5.12	0.49	1.17	0.878	> 20
NKM-1 (acute myeloid leukaemia, suspension)	0.947	> 5.12	0.285	0.301	0.804	10.3
NU-DUL-1 (B-cell lymphoma, suspension)	0.971	> 5.12	0.193	0.196	0.632	2.66
NUGC-3 (stomach, adherent)	0.984	> 5.12	0.655	3.56	0.984	> 20
OACM5-1 (oesophagus, semi-adherent)	0.963	> 5.12	0.453	0.917	0.875	> 20
OAW-28 (ovary, adherent)	0.965	> 5.12	0.393	0.587	0.938	> 20
OAW-42 (ovary, adherent)	0.985	> 5.12	0.684	4.28	0.985	> 20
OCI-AML2 (acute myeloid leukaemia, suspension)	0.995	> 5.12	0.301	0.407	0.874	11.5
OCI-M1 (acute myeloid leukaemia, suspension)	0.895	3.62	0.09	0.0965	0.922	18.3
OCUM-1 (stomach, adherent)	0.985	> 5.12	0.982	> 20	0.987	> 20
OE19 (oesophagus, adherent)	0.982	> 5.12	0.923	> 20	0.986	> 20
OE33 (oesophagus, adherent)	0.952	> 5.12	0.552	1.78	0.976	> 20
OMC-1 (cervix, adherent)	0.984	> 5.12	0.728	5.77	0.988	> 20
